For experiment [1], the target named is T1, HTR6 double mutant (D^3.32A; A^5.42D) (Mus musculus, UniProt Q9R1C8, A192D/D106A).
T1 construct: expressed in transfected cells; host or cells: HEK-293
The experiment is classed as cell-based. The following applies: ligands 0, 10 or 100 μM.

In experiment [2] the test system is TAAR10a D^3.32A mutant. As to the kind of experiment: Cre-Seap reporter gene assay, TAAR10a D^3.32A mutant. The experiment is classed as cell-based, zebrafish.
Experiment [3] concerns the target T2, TAAR13c^D202A (Danio rerio, UniProt Q5QNP2, D202A).
T2 construct: expressed in transfected cells; host or cells: HEK-293
T2 sequence (Q5QNP2 1-341 D202A): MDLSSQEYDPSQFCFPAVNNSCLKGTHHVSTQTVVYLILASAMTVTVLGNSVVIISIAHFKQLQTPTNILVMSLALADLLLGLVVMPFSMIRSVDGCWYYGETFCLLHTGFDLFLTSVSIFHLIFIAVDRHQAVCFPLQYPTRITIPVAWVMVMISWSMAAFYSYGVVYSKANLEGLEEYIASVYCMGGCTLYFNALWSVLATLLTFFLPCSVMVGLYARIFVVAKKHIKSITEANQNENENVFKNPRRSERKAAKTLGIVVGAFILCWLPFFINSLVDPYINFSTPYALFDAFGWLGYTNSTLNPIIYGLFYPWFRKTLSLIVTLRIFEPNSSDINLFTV
The experiment is classed as cell-based. The settings on record: cadaverine up to 1 mM.

Experiment [4] has as its system TAAR12h D^3.32A mutant. The experiment is classed as cell-based, zebrafish.

Here are results for four compounds from PMC4695389, “Non-classical amine recognition evolved in a large clade of olfactory receptors” (eLife, 2015).

T1 sequence (Q9R1C8 whole entry D106A/A192D): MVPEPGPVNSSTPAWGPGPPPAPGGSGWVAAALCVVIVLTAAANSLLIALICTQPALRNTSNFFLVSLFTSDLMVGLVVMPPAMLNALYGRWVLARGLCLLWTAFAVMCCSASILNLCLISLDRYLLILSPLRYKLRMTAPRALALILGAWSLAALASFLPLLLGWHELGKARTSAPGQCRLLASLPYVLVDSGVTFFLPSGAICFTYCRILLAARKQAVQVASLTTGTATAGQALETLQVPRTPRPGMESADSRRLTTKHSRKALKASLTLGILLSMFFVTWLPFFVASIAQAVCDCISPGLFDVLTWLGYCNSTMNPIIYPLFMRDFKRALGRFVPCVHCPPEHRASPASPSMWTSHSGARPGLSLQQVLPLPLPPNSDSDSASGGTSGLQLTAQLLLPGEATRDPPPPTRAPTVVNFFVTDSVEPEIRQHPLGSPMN

`NCCc1c[nH]c2ccc(O)cc12` [serotonin]: the “recognition by HTR6 double mutant” value in experiment [1] is “no longer recognized”. The “response of TAAR10a with charge-neutralizing mutation of Asp^3.32” value in experiment [2] is “completely eliminated responses”.

On to `COc1cc(CCN)ccc1O` [3-methoxytyramine], for which the “activation of TAAR13c D202A mutant” value in experiment [3] is given as “agonist”.

For `NCCO` [ethanolamine], in experiment [1], the “recognition by HTR6 double mutant” value is “recognized”.

Regarding `NCCc1ccccc1` [2-phenylethylamine], in experiment [4], the “response of TAAR12h with charge-neutralizing mutation of Asp^3.32” value was “completely eliminated responses”.
